Data as given in patent publication US12209142B2, “SARS-CoV-2 epitope-targeted peptide immunostimulants” (Institute for Systems Biology, priority 2020, dated 2025).
Where a SMILES comes first, the peptide text is derived from it. Bridges are numbered along the chain shown (N, C = ends). Triazole bridges read from a SMILES are 1,4-linked. Where no end group is shown, it is not given here. [ ]: non-standard residue; d: D form. The star is where a group is joined. Biotin = O=C1N[C@H]2[C@H](CS[C@H]2CCCCC(=O)*)N1; Lys(N3) = [N-]=[N+]=NCCCC[C@H](N)C(=O)O; PEG5 = NCCOCCOCCOCCOCCOCCC(=O)O; Pra = C#CC[C@H](N)C(=O)O

Tested on: MrkA-expressing K. pneumoniae cells
Assay: Whole-cell ELISA of biotinylated PCC binding
Settings: strain BAA 1705, 50 μM PCC

| Molecule | whole-cell ELISA signal at high PCC concentration, LB or G-CAA |
| --- | --- |
| cy(LLFFA): control compound differing from cy(LLFFF) by a single phenyl moiety ([Lys(N3)]LLFFA[Pra]; triazole 1-7) | bound K. pneumoniae cells regardless of MrkA-expression level |
| CC(C)C[C@@H]1NC(=O)[C@@H](NC(=O)CCOCCOCCOCCOCCOCCNC(=O)CCCC[C@@H]2SC[C@@H]3NC(=O)N[C@@H]32)Cc2cn(nn2)CCCC[C@@H](C(N)=O)NC(=O)[C@H](Cc2ccccc2)NC(=O)[C@H](Cc2ccccc2)NC(=O)[C@H](Cc2ccccc2)NC(=O)[C@H](CC(C)C)NC1=O [cy(LLFFF)] ({Biotin-PEG5}-[Pra]LLFFF[Lys(N3)]-NH2; triazole 1-7; N-terminus and C-terminus assumed) | bound K. pneumoniae cells regardless of MrkA-expression level |
